According to the supplement of paper PMC12632987:
Whole data set: some 4,500 sequences, median “median log2 fold change of GCK-ALFA target abundance (FLAG IP / Myc IP barcode read proportion)” near 0.078, cut for the lowest 2% near -0.6. The list shows a part of the results.

B1: GBRAP_160_4330 (protein)
chain: SERFEKLKEFIDEVFEEAKELIEGESLEQIKVIIRGAFGEIAMEFAEDESISDELIDFVLEIEDETLKTLDENPDLSLEEIKKLIEEAREKIIEELEKEE
B2: GBRAP_160_4631 (protein)
chain: SEKLKKAKEAIEEAEKFVLSLIPEVNVEQAANALETEFGSVILELLEEGLISEETADKMMEVVRKARDYMLAHPDLTEEELKALVRKTAEEIKKILEKEY
B3: GBRAP_43_5751 (protein)
chain: MEEIIEGHIDFAKLAAEDENISEEQKLKIAKDTFEIVADENIKLPEKLNELTKALAKSLSLEQLKELKKHLKELSKKYPELKEMFDASIKIIEEAIKKKE
B4: GBRAP_14_3810 (protein)
chain: KEKLIKEIEKILKELEKELVEELGLDEKEVKKLVEKAIEEIKKAIEEKENPEEEIEKIFDKLREEIAKLAAKLGADVEAGARALVDDAEYEVDEAIEKYK
B5: GBRAP_139_3739 (protein)
chain: MKEEEIVEEAREKALELKDDPDALADYIVERIKAVDEETAEKIVRAVMEALKDLPVDKILEIVDKVLEKLEEAGVSEDKKDVAEAELNGGLARHAAAEEA
B6: GBRAP_95_7062 (protein)
chain: AEDQEAAIDDALAYAARVELGDESAVPKLAAALVEALKLGVLKEVAAELDDDTLLKALRKAAETASPETVRALIDAALEATGNEALAAEARAYLEALLAA
B7: GBRAP_125_3036 (protein)
chain: SKEQEVADLGTLAKALGYSEEDVAELEELARKHGVKGTLIALLLAEGKEEIAELVEKLSEAEVVAVLKELAAELAANPDLTPEEVIERLKELVEKAVAAS
B8: GBRAP_160_4325 (protein)
chain: SEEYEKLIKEIKEITEEAIKMIKGESKEQRITIVKVALGEIILEVEENPAVSDELEEKVAEIADKAEAYLDANPDLSEEEVIKLLKEATEKIIKLIEEEA
B9: GBRAP_160_4312 (protein)
chain: MEEIEELKKRIREIVEEAIKMIEGESAEQRKTIARVTLGEILLEAEENPAISDELLDEIAAIVDAAEATIDANPDLTEEELKALLRATEEAILALLDKSL
B10: GBRAP_125_2968 (protein)
chain: ATEEELENLRLLALALGLSEEEAEEAAELARASSIRGTLYAIAAGLGYDELAELLAEVTEEEAREILRRTAEYIKAHPDATPEEVVEYMTKLAKEALAAR
B11: GBRAP_166_4916 (protein)
chain: SMEEKLAEAKARIAKLVAAMPKTDEAKQVELAIEIAEVFEELEKAGASEEELLELWRFLAEELKKAGLDVERIMAIVAAAAGLDEEEMEKVDEIVKEVLA
B12: GBRAP_160_4411 (protein)
chain: SEELKKIAEEIYEDVKETLEALLEMGDIDPEQAAGLLEGTILNGIFESEKLTEEQEEQLEKLAEELAREARELLEREGRLTEEIKERLLKLLKEGLEKIL
B13: GBRAP_74_6528 (protein)
chain: DEELLKKLKEAAEAGDVDKAVELAKEIIKNGSKEAIEEAAKILIAFVKKNIDKLTKEELLKLSDTLAELADELMERGGDNEVVNAVAQAAVELDKKAEAL
B14: GBRAP_184_5233 (protein)
chain: KVLEREIEAENAEELRRKLEEVREEARRAGARVRLIIKVKELTKEKAEVLAEQLRRMAAEGLIDLVEVESSTRIEEENVDLLVAAADEAGVRLVLAMEEE
B15: GBRAP_14_3771 (protein)
chain: MEEKEKIIREEAKEIVELLGEIVPEKAEEFRKIVEEVTEKTIKRARETGNWDEALEEGEEELVKRIEEVSKDLPEETRAELVAVVRVGMGEALLEIDELE
B16: GBRAP_52_6302 (protein)
chain: MREEARRLVREIFALVLAGDREGARRRLREFAETANDEEIRVFAEELVRLAREAPLEQLDAVFELAELASEALEEAGKDEVLADDILARTAAAIYEKEQA
B17: GBRAP_160_4508 (protein)
chain: SKTLEEIKKEIEEAREEIKEEIEEGTVEEAIIVAAVELGEVIMEIIEDESMSDEAEDKAAEIRDELIKKLEENKDASVEELKKIVDELTEKLIEELEKLS
B18: GBRAP_52_6259 (protein)
chain: MREEMRKKAKEILELVKEGKLEEARALAKEIAETSNEEELEIFIEEMAELARESSKEEIEDLIKLAELVAEELEEAGKPEEIVSLFEARVYGAIYETEQK
B19: GBRAP_160_4019 (protein)
chain: MEEIEKLKKEIKELLEETKKAIEGLTPEERLTLFRGMAGEILQLAFESPAVSDETEDKIAEIADEFIEEVEANKNASLEVLKALIDDFEKRIFELLEEEK
B20: GBRAP_184_5049 (protein)
chain: KIKEEVIEAENLEELKEKLEELKEKMKNFKGELIVLVKLPEFTLEMVTLILDTLREIKEEGYVEKVTVGLDGKMSEEVVDHALKLADEAGINVVIALEEE
B21: GBRAP_160_3971 (protein)
chain: SEEIEKLKKEIEEIFEEAKKLIEGETYEERLTIVRVAVGEVILLVDSNPLVSDEAEDKVAAIGDALVAELDANPDLTEEEIKKLIEKALEEIKKVLEKDA
B22: GBRAP_35_5517 (protein)
chain: STEKTATEMLVATIEDLVLAVPDMPVEQAAAIAEQLIESALKLAKEFKNDIESLKRLAEALERLLEAIRRHYPDSPLAREVAERIEEAIKEIKKLIEEAK
B23: GBRAP_128_3375 (protein)
chain: VNEEFLKEIEELVEKMLESSVEEVRELTKKIVELLSKASLEEQEAAVEIILEKLPEFSVEKLEAIADVLREERKKASPELQELLADVEVEALNEAEEKEE
B24: GBRAP_160_4223 (protein)
chain: METVEKLVEVFREEFEEALELIEGESPEERRVILDVAAGNVILEAEEIPEATEEMVEVVDRKAEEARERLLAARDASPEERRELIREQAEELREELEKLA
B25: GBRAP_184_5157 (protein)
chain: KVLERVIKAENKEELEEKLAEIRAEAAETKADVYVIVELKNPTKEMLELLLTALGEIKAEGLSPNVVVELTNDLTEEQIDFALKLADEQGVKLVIAISDE
B26: GBRAP_160_4098 (protein)
chain: SAEVEKLIEEIDELLEETKEMIKGESIENRAIIVRGFGGDVLMLLFSSGLVSEETEDFADELFDELVETIESNPDLTEEEIIKLIEEVVEEVKEKIKEEH
B27: GBRAP_160_4624 (protein)
chain: SAKLEKAKAMFEEAREFVLSLVPEVDTATFAAFLDTEFGSVILEALEEGLISEETADKMMAIVDEAVAHLLAHPDLSDEERRALVEEMLARIFEVLEKEY
B28: GBRAP_79_6746 (protein)
chain: GVEEARKALAEALKVVLPELTEEELKEIVESDEALKEALKRAGISEESAEELLKAIDEIPEYSAEQFRKAVERMKGLPPEEKRDILEATIAAIIYKAEQK
B29: GBRAP_160_4512 (protein)
chain: KETLEELFKEIEEAKERILEVIDENDMEAAIIEAEVEYGKVIMEMFEREEVSDEAVEAAAEIRDELVEELKANKDAPVEEKKKIVEEHAEKLKEKLKELF

molecular target: GABARAP, O95166; test: median log2 fold change of GCK-ALFA target abundance (FLAG IP / Myc IP barcode read proportion) (log2 ratio); each designed protein is fused to an ALFA-tag nanobody in HEK293 cells to bring the named protein to FLAG-tagged glucokinase (GCK); Myc marks an untargeted standard; higher = target protein stabilised (more abundant); details: target protein: 3xFLAG-MCP-GCK-ALFA reporter; HEK293 landing pad (RPLP)
Outline: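 HEK293 landing-pad cells received a recombined binder library fused to the ALFA nanobody and were induced with 2 μg mL^−1 doxycycline, then transfected with a plasmid encoding a FLAG-tagged target and a Myc-tagged standard. Lysates were collected after 48 h for anti-FLAG and anti-Myc immunoprecipitation, and the circular RNA barcodes were reverse transcribed, amplified and sequenced. Target abundance for each binder is the median log2 ratio of FLAG to Myc barcode read proportions. Barcodes had to reach a proportion of at least 10^−7 in both replicates, each binder needed at least 3 barcodes per replicate, a pseudocount of 10^−6 was applied, and the two replicates were pooled.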

Sequence of GABARAP, O95166 (O95166 whole entry, the tested form may be a part): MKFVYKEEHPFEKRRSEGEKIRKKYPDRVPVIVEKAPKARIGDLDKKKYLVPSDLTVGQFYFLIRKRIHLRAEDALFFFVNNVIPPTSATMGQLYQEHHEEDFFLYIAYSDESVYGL

Row | Binder | median log2 fold change
1 | B1 | -0.166
2 | B2 | 0.0849
3 | B3 | 0.358
4 | B4 | 0.188
5 | B5 | 0.0687
6 | B6 | 0.253
7 | B7 | 0.104
8 | B8 | -0.203
9 | B9 | -0.444
10 | B10 | -0.479
11 | B11 | 0.103
12 | B12 | 0.0595
13 | B13 | 0.209
14 | B14 | 0.136
15 | B15 | -0.12
16 | B16 | 0.128
17 | B17 | 0.0204
18 | B18 | 0.0501
19 | B19 | -0.0414
20 | B20 | 0.104
21 | B21 | -0.204
22 | B22 | 0.199
23 | B23 | 0.132
24 | B24 | -0.311
25 | B25 | 0.167
26 | B26 | -0.278
27 | B27 | -0.133
28 | B28 | 0.368
29 | B29 | 0.124
